Reference: the supplement of paper PMC10126150
Values marked as one replicate rest on one cluster of the flow cell; about a third of the high ones do not repeat.

Each sequence was assayed on ATP (assay: switch fluorescence ratio, 500 uM ATP over buffer (Cy3 cluster intensity, sum of 5 cycles each) (fold (ratio)); higher = stronger signal-on switching upon ATP binding; sequences stand for … in TCGTCGGCAGCGTCAGATGTGTATAAGAGACAGTTTTTTTTTTTTTTTTTTTTTTTTT…TC). Details: aptamer strand: ATP DNA aptamer (quencher-CACCTGGGGGAGTATTGCGGAGGAAGG + anchor), 100 nM annealed; ATP concentration: 500 uM; one replicate.
Summary of the method: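 For every switch-domain sequence, the fluorescence ratio is the mean of per-cluster values, each being summed target-cycle Cy3 intensity over summed buffer-cycle Cy3 intensity. Clusters outside 100-1000 RFU were excluded. On a modified Illumina MiSeq flow-cell, the Cy3-labelled switching-strand clusters were annealed to 100 nM quencher-labelled ATP aptamer, imaged in selection buffer and then after 15 min with 500 uM ATP at 22 °C. Five such cycles were run, with NaOH stripping and re-annealing between them.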
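Note: ATP exposure 15 min at 22 °C before imaging.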

| Sequence | switch fluorescence ratio |
| --- | --- |
| CTTCCCTCGT | 1.21 |
| CTTCCGTATT | 2.83 |
| CTTCCGTCTG | 1.56 |
| CTTCCTGGCA | 1.98 |
| CTTCGCTAGT | 1.78 |
| CTTCGGAGCT | 1.89 |
| CTTCGGGCTG | 0.995 |
| CTTCGGTTGG | 0.962 |
| CTTCGTGTT | 0.985 |
| CTTCTAAGGA | 1.02 |
| CTTCTAAGTG | 0.977 |
| CTTCTCTCTC | 1.07 |
| CTTCTGACCG | 1.35 |
| CTTCTTAACT | 0.983 |
| CTTCTTAGAT | 1.01 |
| CTTCTTGGTC | 1 |
| CTTGAATCAA | 0.983 |
| CTTGAATTCG | 0.94 |
| CTTGACATTG | 0.989 |
| CTTGACGCTC | 1.18 |
| CTTGAGCAGC | 1.01 |
| CTTGAGTAGT | 1.04 |
| CTTGAGTT | 1 |
| CTTGAGTTCC | 1 |
| CTTGCAGTCG | 1.03 |

| Sequence | switch fluorescence ratio |
| --- | --- |
| CTTGCCAGCT | 0.987 |
| CTTGCGCAAC | 3.72 |
| CTTGCTCTCG | 1.26 |
| CTTGCTGCTT | 0.972 |
| CTTGCTGGAG | 1.06 |
| CTTGCTTCCG | 1.35 |
| CTTGGAAGGA | 0.985 |
| CTTGGACGTC | 0.991 |
| CTTGGAGGCT | 1 |
| CTTGGATTGC | 1 |
| CTTGGCATCC | 1.12 |
| CTTGGCGCTT | 1.04 |
| CTTGGGCAA | 2 |
| CTTGGGCAAT | 3.25 |
| CTTGGGCAGC | 1.02 |
| CTTGGTCTTG | 0.99 |
| CTTGGTTCCC | 1.04 |
| CTTGTAAAGT | 1.05 |
| CTTGTATGA | 0.968 |
| CTTGTATTGT | 1.01 |
| CTTGTCCGGG | 0.986 |
| CTTGTGCTTT | 0.99 |
| CTTGTGGGTC | 1.02 |
| CTTGTGTCGT | 1.01 |
| CTTGTGTGCC | 0.968 |

| Sequence | switch fluorescence ratio |
| --- | --- |
| CTTTAACTT | 1.04 |
| CTTTATAATA | 1.09 |
| CTTTATAG | 1.01 |
| CTTTATTATA | 1.03 |
| CTTTCATGAC | 1.02 |
| CTTTCCGGC | 1.09 |
| CTTTCGATGG | 1 |
| CTTTCGTCGC | 1.42 |
| CTTTCTGTCG | 1 |
| CTTTCTTGGA | 0.992 |
| CTTTGATCGA | 1.05 |
| CTTTGCAGAT | 1.13 |
| CTTTGCCAC | 1.12 |
| CTTTGGGATG | 1.03 |
| CTTTGGGCA | 0.982 |
| CTTTGGGTAA | 1.02 |
| CTTTGTGTTA | 0.999 |
| CTTTGTTATT | 0.999 |
| CTTTTAACAT | 1.04 |
| CTTTTAAGAC | 0.993 |
| CTTTTAATGT | 1.03 |
| CTTTTCAGC | 1.03 |
| CTTTTGTCGG | 0.988 |
| CTTTTGTGCG | 0.993 |
| CTTTTTCCGA | 1.05 |

| Sequence | switch fluorescence ratio |
| --- | --- |
| CTTTTTGGCC | 0.994 |
| CTTTTTTAGT | 0.972 |
| CTTTTTTCCC | 0.962 |
| GAAAAAATAT | 0.951 |
| GAAAAGGGAA | 0.98 |
| GAAAAGGTT | 1.01 |
| GAAACAAGGC | 0.923 |
| GAAACAAGTC | 1.1 |
| GAAACATAAA | 1.02 |
| GAAACCACGA | 1.15 |
| GAAACCGTGA | 1.41 |
| GAAACTATCC | 1.38 |
| GAAAGACCCG | 1.11 |
| GAAAGATTAA | 0.932 |
| GAAAGCCTAT | 1.01 |
| GAAAGGGCCA | 0.972 |
| GAAAGGGCCT | 0.947 |
| GAAAGGTATG | 1.04 |
| GAAAGGTTCT | 1 |
| GAAAGTATCC | 1.11 |
| GAAAGTCTAA | 0.994 |
| GAAATACAGG | 1.01 |
| GAAATAGAA | 0.977 |
| GAAATAGCGA | 1.05 |
| GAAATAGG | 0.94 |

| Sequence | switch fluorescence ratio |
| --- | --- |
| GAAATATTCG | 0.992 |
| GAAATCCAGC | 0.977 |
| GAAATCGCAT | 1.15 |
| GAAATCGCTT | 1.07 |
| GAAATCTTCG | 1.65 |
| GAAATGCAAC | 1.43 |
| GAAATGGCCA | 0.997 |
| GAAATGTTCC | 1 |
| GAAATTCTGC | 0.997 |
| GAAATTGAAT | 1.02 |
| GAACAGGACG | 1.1 |
| GAACCGACGC | 2.93 |
| GAACCGGACT | 2.12 |
| GAACCGTTTA | 1 |
| GAACCTGGCT | 1.07 |
| GAACCTTTGT | 1.1 |
| GAACGGGGAT | 0.986 |
| GAACGGGGCA | 1.08 |
| GAACGGGTTC | 1.01 |
| GAACGGTAAC | 1.24 |
| GAACGGTCGG | 0.982 |
| GAACTATCAG | 0.995 |
| GAACTCATAA | 1.04 |
| GAACTTGGTG | 0.999 |
| GAACTTTACA | 1.2 |

| Sequence | switch fluorescence ratio |
| --- | --- |
| GAAGAAGAGG | 1.01 |
| GAAGAAGCA | 1.01 |
| GAAGACCCCC | 1.54 |
| GAAGACCGCG | 0.998 |
| GAAGAGAATT | 1.01 |
| GAAGAGAGGA | 0.96 |
| GAAGAGCTGG | 0.973 |
| GAAGAGGTTA | 1.03 |
| GAAGAGTCGG | 0.972 |
| GAAGCCATTT | 1.01 |
| GAAGCCCTAT | 1.05 |
| GAAGCTAGGT | 1.06 |
| GAAGCTCAAA | 1.01 |
| GAAGCTGCTG | 0.975 |
| GAAGCTTGTG | 0.984 |
| GAAGGAGTTC | 1.02 |
| GAAGGATGAA | 0.988 |
| GAAGGGGCGG | 0.975 |
| GAAGGGGCTT | 0.959 |
| GAAGGGGGCC | 1.03 |
| GAAGGGTCCT | 0.975 |
| GAAGGGTGTG | 0.977 |
| GAAGGGTTT | 0.998 |
| GAAGGTCTTT | 0.956 |
| GAAGGTGCGG | 1.01 |

| Sequence | switch fluorescence ratio |
| --- | --- |
| GAAGGTTAAA | 0.993 |
| GAAGTAAGCG | 1.01 |
| GAAGTACTAG | 1.18 |
| GAAGTAGCTT | 0.983 |
| GAAGTAGGTA | 0.997 |
| GAAGTCGTTA | 0.978 |
| GAAGTCTGAT | 0.964 |
| GAAGTGGAGC | 1.02 |
| GAAGTTAGCA | 0.989 |
| GAAGTTATGT | 0.98 |
| GAAGTTGGGC | 0.993 |
| GAAGTTGTTA | 1 |
| GAAGTTTATG | 0.969 |
| GAAGTTTCCA | 0.992 |
| GAAGTTTTAG | 0.969 |
| GAATAAAACT | 1.04 |
| GAATAACGCA | 1.14 |
| GAATAACTAC | 1.05 |
| GAATAAGTCG | 0.981 |
| GAATATCAAA | 0.985 |
| GAATATGACT | 1.04 |
| GAATATGGCA | 1.01 |
| GAATATTAAA | 0.976 |
| GAATATTAGA | 1.03 |
| GAATCAAATG | 0.993 |

| Sequence | switch fluorescence ratio |
| --- | --- |
| GAATCATATC | 1.01 |
| GAATCATGAG | 1.08 |
| GAATCGCCGG | 0.997 |
| GAATCTTCTG | 1.09 |
| GAATGAAGTG | 1.05 |
| GAATGAGGTG | 1.04 |
| GAATGCAAGA | 1.21 |
| GAATGCTATA | 1.08 |
| GAATGGGCAC | 1.2 |
| GAATGGGTGG | 0.965 |
| GAATGTAATA | 1.06 |
| GAATTACCTT | 1.06 |
| GAATTCACGT | 1.03 |
| GAATTCTCTC | 0.997 |
| GAATTGATTA | 0.984 |
| GAATTGTTGG | 0.995 |
| GAATTTCAGG | 1.05 |
| GACAAAGGAG | 0.973 |
| GACAAATTT | 1.06 |
| GACAAGTAGA | 0.982 |
| GACAATTAAG | 0.986 |
| GACACTCCAC | 1.46 |
| GACACTCGGG | 0.984 |
| GACACTGATA | 1.07 |
| GACAGATTTC | 1.03 |
